# Test results from US20250270339A1 (Alector, published 2025).
# T1: Cyno TfR ECD Avi-His (cynomolgus macaque, UniProt Q5RDH6 89-760 (Pongo abelii entry), biotin on the Avi tag (BirA) where captured on streptavidin)
# T1 construct: also called Cyno TfR Avi-His; cyno TfR Avi-His
# T1 chain: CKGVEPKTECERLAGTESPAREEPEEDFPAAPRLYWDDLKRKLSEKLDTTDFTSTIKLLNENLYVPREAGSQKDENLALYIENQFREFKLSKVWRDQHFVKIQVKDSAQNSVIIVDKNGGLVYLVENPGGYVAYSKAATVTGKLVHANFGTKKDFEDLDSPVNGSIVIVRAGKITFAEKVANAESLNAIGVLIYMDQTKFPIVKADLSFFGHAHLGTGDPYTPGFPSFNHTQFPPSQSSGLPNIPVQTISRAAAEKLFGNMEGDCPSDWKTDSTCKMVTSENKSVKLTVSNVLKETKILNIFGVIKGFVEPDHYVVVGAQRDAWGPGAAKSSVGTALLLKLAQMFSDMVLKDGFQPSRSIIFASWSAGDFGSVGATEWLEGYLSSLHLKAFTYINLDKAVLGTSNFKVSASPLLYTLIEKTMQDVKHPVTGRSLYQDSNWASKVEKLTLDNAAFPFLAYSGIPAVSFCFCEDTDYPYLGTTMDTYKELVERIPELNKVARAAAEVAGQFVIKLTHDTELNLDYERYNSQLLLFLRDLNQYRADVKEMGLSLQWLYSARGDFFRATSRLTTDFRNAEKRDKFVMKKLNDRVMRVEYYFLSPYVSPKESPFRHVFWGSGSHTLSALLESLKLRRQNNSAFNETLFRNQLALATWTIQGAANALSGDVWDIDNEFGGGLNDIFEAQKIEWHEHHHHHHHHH
# T2: huTfR Apical Domain-Avi-His (human, biotin on the Avi tag (BirA) where captured on streptavidin)
# T2 construct: also called huTfR apical Avi-His; hTfR Apical
# T2 chain: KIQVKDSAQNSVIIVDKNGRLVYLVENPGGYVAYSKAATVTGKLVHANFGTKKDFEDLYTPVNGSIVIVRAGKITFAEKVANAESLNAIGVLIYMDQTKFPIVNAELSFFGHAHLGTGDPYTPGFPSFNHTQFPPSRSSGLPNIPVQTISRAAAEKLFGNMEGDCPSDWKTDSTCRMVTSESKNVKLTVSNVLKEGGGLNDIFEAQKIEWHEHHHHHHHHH
# Assays:
# [1] = target: T3, Full length human TfR on CHO cells (human, UniProt P02786); assay: FACS MFI
# T3 construct: also called CHO + huTfR; CHO + hTfR
# T3 sequence (P02786 whole entry): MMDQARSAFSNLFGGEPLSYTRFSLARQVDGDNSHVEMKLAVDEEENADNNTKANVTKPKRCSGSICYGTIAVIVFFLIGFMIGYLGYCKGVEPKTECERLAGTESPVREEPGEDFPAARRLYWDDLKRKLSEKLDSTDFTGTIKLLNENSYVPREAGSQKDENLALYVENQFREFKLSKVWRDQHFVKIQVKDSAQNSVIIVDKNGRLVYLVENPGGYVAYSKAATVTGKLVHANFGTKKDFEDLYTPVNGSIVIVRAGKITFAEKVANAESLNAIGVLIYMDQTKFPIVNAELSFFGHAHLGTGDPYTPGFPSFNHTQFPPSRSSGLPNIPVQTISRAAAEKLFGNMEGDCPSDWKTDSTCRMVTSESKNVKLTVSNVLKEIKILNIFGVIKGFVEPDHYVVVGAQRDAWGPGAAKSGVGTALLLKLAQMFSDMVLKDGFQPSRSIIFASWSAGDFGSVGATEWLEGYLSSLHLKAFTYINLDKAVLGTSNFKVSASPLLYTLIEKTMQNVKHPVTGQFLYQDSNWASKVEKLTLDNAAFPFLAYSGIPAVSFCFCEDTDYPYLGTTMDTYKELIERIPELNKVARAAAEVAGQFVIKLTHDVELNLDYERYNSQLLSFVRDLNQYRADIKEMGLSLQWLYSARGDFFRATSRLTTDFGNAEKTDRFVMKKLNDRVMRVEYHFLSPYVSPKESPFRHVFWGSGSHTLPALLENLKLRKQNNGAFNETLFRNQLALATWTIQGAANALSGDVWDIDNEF
# [2] = target: T1, Cyno TfR ECD Avi-His; assay: ELISA OD450
# [3] = target: T4, Mouse TfR (muTfR) ECD Avi-His (mouse, UniProt Q62351, biotin on the Avi tag (BirA) where captured on streptavidin); assay: ELISA OD450
# T4 construct: also called MuTfR Avi-His
# [4] = target: T2, huTfR Apical Domain-Avi-His; assay: ELISA OD450
fold over CHO parental [1],fold over isotype control [2],fold over isotype control [3],fold over isotype control [4],Binder
277 fold,30 fold,1 fold,41 fold,"TfR19 2+1 anti-TfR bispecific antibody (bispecific antibody, human IgG1, kappa, 2+1) heavy 1: EVRLLESGGGLVQPGGSLRLSCAASGFTFSNYAMGWVRQAPGKGLEWVSAISGSGGSTYYADSVKGRFTTSRDDSKNALYLQMNSLRAEDTAVYYCARGGPGWYAADVWGQGTTVTVSSASTKGPSVFPLAPSSKSTSGGTAALGCLVKDYFPEPVTVSWNSGALTSGVHTFPAVLQSSGLYSLSSVVTVPSSSLGTQTYICNVNHKPSNTKVDKKV[here human IgG1 Fc with changes without letters]GGGGSGGGGSGGGGSQVQLQQPGSELVRPGASVKLSCKASGYTFTSYWTHWVKQRPGQGLEWIGNIYPGSGSSNYDEKFKSKATLTVDTSSSTAYMQLSSLTSEDSAVYFCTRSSYYGNFDTMDNWGQGTSVTVSSGGSEGKSSGSGSESKSTGGSQIVLTQSPAIMSASPGEKVTMTCSASSSIRYMNWYQQKPVTSPKRWIYDTSTLASGVPARFSGSGSGTSYSLTISSMEAEDAATYYCHQRSSYPWTFGGGTKLEIK heavy 2: EVRLLESGGGLVQPGGSLRLSCAASGFTFSNYAMGWVRQAPGKGLEWVSAISGSGGSTYYADSVKGRFTTSRDDSKNALYLQMNSLRAEDTAVYYCARGGPGWYAADVWGQGTTVTVSS[here human IgG1 constant region with changes without letters] light: DIQMTQSPSSLSASVGDRVTITCRASQSISSYLNWYQQKPGKAPKLLIYAASSLQSGVPSRFSGSGSGTDFTLTISSLQPEDFATYYCQQADLPAFAFGGGTKVEIKRTVAAPSVFIFPPSDEQLKSGTASVVCLLNNFYPREAKVQWKVDNALQSGNSQESVTEQDSKDSTYSLSSTLTLSKADYEKHKVYACEVTHQGLSSPVTKSFNRGEC"
1000 fold,1 fold,1 fold,39 fold,"TfR16 2+1 anti-TfR bispecific antibody (bispecific antibody, human IgG1, kappa, 2+1) heavy 1: EVRLLESGGGLVQPGGSLRLSCAASGFTFSNYAMGWVRQAPGKGLEWVSAISGSGGSTYYADSVKGRFTTSRDDSKNALYLQMNSLRAEDTAVYYCARGGPGWYAADVWGQGTTVTVSSASTKGPSVFPLAPSSKSTSGGTAALGCLVKDYFPEPVTVSWNSGALTSGVHTFPAVLQSSGLYSLSSVVTVPSSSLGTQTYICNVNHKPSNTKVDKKV[here human IgG1 Fc with changes without letters]GGGGSGGGGSGGGGSEVQLQQSGTVLARPGASVKMSCKTSGYSFSSYWMHWVKQRPGQGLEWIGTIYPGNSDTIYNQNFKGKAKLTAVTSASTAYMELSSLTNEDSAVYYCSTIYYFSNWGQGTTLTVSSGGSEGKSSGSGSESKSTGGSDIKMTQSPSPMFASLGERVTITCKASQDINSYLSWFQQKPGKSPKTLIYRANRLLDGVPSRFSGSGSGQDYSLTISSLDYEDVGIYYCLQYDVFPYTFGGGTKLEIK heavy 2: EVRLLESGGGLVQPGGSLRLSCAASGFTFSNYAMGWVRQAPGKGLEWVSAISGSGGSTYYADSVKGRFTTSRDDSKNALYLQMNSLRAEDTAVYYCARGGPGWYAADVWGQGTTVTVSS[here human IgG1 constant region with changes without letters] light: DIQMTQSPSSLSASVGDRVTITCRASQSISSYLNWYQQKPGKAPKLLIYAASSLQSGVPSRFSGSGSGTDFTLTISSLQPEDFATYYCQQADLPAFAFGGGTKVEIKRTVAAPSVFIFPPSDEQLKSGTASVVCLLNNFYPREAKVQWKVDNALQSGNSQESVTEQDSKDSTYSLSSTLTLSKADYEKHKVYACEVTHQGLSSPVTKSFNRGEC"
17 fold,1 fold,1 fold,8 fold,"TfR13 2+1 anti-TfR bispecific antibody (bispecific antibody, human IgG1, kappa, 2+1) heavy 1: EVRLLESGGGLVQPGGSLRLSCAASGFTFSNYAMGWVRQAPGKGLEWVSAISGSGGSTYYADSVKGRFTTSRDDSKNALYLQMNSLRAEDTAVYYCARGGPGWYAADVWGQGTTVTVSSASTKGPSVFPLAPSSKSTSGGTAALGCLVKDYFPEPVTVSWNSGALTSGVHTFPAVLQSSGLYSLSSVVTVPSSSLGTQTYICNVNHKPSNTKVDKKV[here human IgG1 Fc with changes without letters]GGGGSGGGGSGGGGSDVKLVESGGGLVKPGGSLKLSCAASGFTFSSYTMSWVRQTPEKRLEWVATISSGGSYTYFPDSVKGRFTISRDNAKNTLYLQMSSLKSEDTAIYYCTRAHYYAYDYWGQGTTLTVSSGGSEGKSSGSGSESKSTGGSDILLTQSPAILSVSPGERVSFSCRASQSIGTSIHWYQQRTNGSPRLLIKYASGSISGIPSRFSGSGSGTDFTLSINSVESEDIADYYCQQSNSWPTSTFGAGTKLELK heavy 2: EVRLLESGGGLVQPGGSLRLSCAASGFTFSNYAMGWVRQAPGKGLEWVSAISGSGGSTYYADSVKGRFTTSRDDSKNALYLQMNSLRAEDTAVYYCARGGPGWYAADVWGQGTTVTVSS[here human IgG1 constant region with changes without letters] light: DIQMTQSPSSLSASVGDRVTITCRASQSISSYLNWYQQKPGKAPKLLIYAASSLQSGVPSRFSGSGSGTDFTLTISSLQPEDFATYYCQQADLPAFAFGGGTKVEIKRTVAAPSVFIFPPSDEQLKSGTASVVCLLNNFYPREAKVQWKVDNALQSGNSQESVTEQDSKDSTYSLSSTLTLSKADYEKHKVYACEVTHQGLSSPVTKSFNRGEC"
309 fold,32 fold,1 fold,42 fold,"TfR27 2+1 anti-TfR bispecific antibody (bispecific antibody, human IgG1, kappa, 2+1) heavy 1: EVRLLESGGGLVQPGGSLRLSCAASGFTFSNYAMGWVRQAPGKGLEWVSAISGSGGSTYYADSVKGRFTTSRDDSKNALYLQMNSLRAEDTAVYYCARGGPGWYAADVWGQGTTVTVSSASTKGPSVFPLAPSSKSTSGGTAALGCLVKDYFPEPVTVSWNSGALTSGVHTFPAVLQSSGLYSLSSVVTVPSSSLGTQTYICNVNHKPSNTKVDKKV[here human IgG1 Fc with changes without letters]GGGGSGGGGSGGGGSQVQLQQPGSELVRPGASVKLSCKASGYTFTSYWMHWVKQRPGQGLEWIGNIYPGTGSTNYDEKFKSKATLTVDTSSSTAYMQLSSLTSEDSAVYYCTRSSYYGNFDTMDYWGQGTSVTVSSGGSEGKSSGSGSESKSTGGSQIFLTQSPAIMSASPGERVTMTCSASSSIRYMNWYQQKPGTSPKRWIYDTSELASGVPARFTGSGSGTSYSLTISSMEAEDAATYYCHQRSGYPWTFGGGTKLEIK heavy 2: EVRLLESGGGLVQPGGSLRLSCAASGFTFSNYAMGWVRQAPGKGLEWVSAISGSGGSTYYADSVKGRFTTSRDDSKNALYLQMNSLRAEDTAVYYCARGGPGWYAADVWGQGTTVTVSS[here human IgG1 constant region with changes without letters] light: DIQMTQSPSSLSASVGDRVTITCRASQSISSYLNWYQQKPGKAPKLLIYAASSLQSGVPSRFSGSGSGTDFTLTISSLQPEDFATYYCQQADLPAFAFGGGTKVEIKRTVAAPSVFIFPPSDEQLKSGTASVVCLLNNFYPREAKVQWKVDNALQSGNSQESVTEQDSKDSTYSLSSTLTLSKADYEKHKVYACEVTHQGLSSPVTKSFNRGEC"
